The source gives no read counts; variants with many changes may rest on few reads.

The labels stand for the following.
B1: CPEB3 Ribozyme (parent)
chain: UAACAGGGGGCCACAGCAGAAGCGUUCACGUCGCAGCCCCUGUCAGAUUCUGGUGAAUCUGCGAAUUCUGCUGUAUAUCUC

The variants in this data set derive from B1. Put plainly: self-cleavage, relative activity (ratio to wild type); higher = more cleavage; in vitro, sequencing. In outline:
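Libraries of CPEB3 self-cleaving ribozyme mutants came from rounds of error-prone PCR and carried barcodes, which DNA sequencing matched to variants. In vitro transcription used T7 RNA polymerase at 37°C for 5 hours, with a further 15 min in DNase I before EDTA stopped the reaction; the ribozymes cleaved during both steps. The RNA was reverse transcribed with template switching and sequenced on Illumina. Relative activity is the cleaved/total read fraction of a variant divided by that of the unmutated ribozyme, averaged over three batches with at least 5 reads.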
Consider A18G U31G U54C U60A U66C U78C U80C, for which the self-cleavage came out at 0.08.

On to A18G A28G U31C U48C U69A, for which the self-cleavage was found to be 0.06.

For A18G U51C U74C, the self-cleavage was found to be 0.78.

Consider A18U A21U U43C U58C, for which the self-cleavage stood at 0.14.

With A18G U54A A57C U76C, the self-cleavage worked out at 0.21.

For the variant A18G U31C A35G, the self-cleavage was determined as 0.5.

As to A18G A28C A35U U41A A45U, the self-cleavage worked out at 0.13.

As for A18G G24C A57G A64U, the self-cleavage was 0.06.

Turning to A18U U25C A45U A47U U49C U54C A64G, the self-cleavage was determined as 0.19.

In the case of A18G U72C C79U, the self-cleavage was found to be 0.81.

With A18G A21G A35G C59A U67C, the self-cleavage came to 0.16.

For A18U G22A C32U U60C U67C A75U U76G, the self-cleavage was 0.04.

A18U G24U U25G A45U U58A U66C U69A: the self-cleavage was determined as 0.03.

As for A18G A28G A64G U80A, the self-cleavage stood at 0.3.

For A18G G52A U76C, the self-cleavage was 0.32.

As for A18G U43C C50U U80C, the self-cleavage came to 0.24.

As to A18G U48C A77G, the self-cleavage came to 0.7.

Consider A18G U25C A28G C44U, for which the self-cleavage was found to be 0.33.

With A18U A56G U67G, the self-cleavage was 0.21.

Turning to A18U A21G A56G A64U, the self-cleavage was 0.28.

With A18G U41C U51C A77U, the self-cleavage came to 0.67.

Consider A18G C29U G42A A56G G61C, for which the self-cleavage worked out at 0.11.

As for A18G U48C U60G U78C, the self-cleavage is 0.15.

Take A18U A28G U69G: the self-cleavage was found to be 0.92.

A18G A28U U49C U54C: the self-cleavage worked out at 0.38.

Turning to A18U G36A U48A U51C, the self-cleavage came to 0.05.

On to A18G G24A U26A U49C U66C U78C, for which the self-cleavage came out at 0.1.

For the variant A18G A21G C34G U67C, the self-cleavage is 0.06.

For the variant A18U C23U C29A A35G A75G, the self-cleavage was 0.17.

Regarding A18G U43C U54A, the self-cleavage is 0.47.

Turning to A18G C27A A47G A75U, the self-cleavage turned out to be 0.21.

Turning to A18U A20G U26C U72C, the self-cleavage stood at 0.09.

For the variant A18G U26G A28G U41G, the self-cleavage stood at 0.45.

As to A18U A21G U31C U60C, the self-cleavage came out at 0.14.

Consider A18G A21G U26A U67A, for which the self-cleavage stood at 0.37.

Turning to A18G U48A U49A U58G, the self-cleavage was determined as 0.42.

Regarding A18G C40U U51C G52A A56U G61U A75G, the self-cleavage came to 0.07.

On to A18G U26A A65G U72A, for which the self-cleavage stood at 0.21.

As to A18U A28G A35G, the self-cleavage was determined as 0.42.

In the case of A18G A77C U80G, the self-cleavage turned out to be 0.77.

In the case of A18G U51C U58A U72A U78C, the self-cleavage worked out at 0.1.

For the variant A18G U43C U51C C62G, the self-cleavage worked out at 0.19.

Take A18G A28G U41G U60C: the self-cleavage came to 0.27.

With A18G A21G C40A U41G A47U C62U U76G, the self-cleavage turned out to be 0.04.

Turning to A18G U49C A56G A57U, the self-cleavage came to 0.13.

For A18U U25A C37U U69C, the self-cleavage is 0.06.

Consider A18G U26C A45G U76A, for which the self-cleavage came out at 0.33.

Turning to A18U U25C A45G A47G A56U, the self-cleavage stood at 0.1.

As to A18U A21G G33A A47C U80C, the self-cleavage was 0.04.

In the case of A18G G33A A35G A47G U51C A56C, the self-cleavage amounted to 0.29.

As to A18G U25G U41C C44U U60A, the self-cleavage worked out at 0.05.

Turning to A18G A21U U66C C71A A75G, the self-cleavage was 0.13.

As for A18U A47G A57G A64U U67C, the self-cleavage is 0.08.

For the variant A18U G55A G63A A75G A77C, the self-cleavage was determined as 0.17.

With A18G A21U U78A, the self-cleavage was 0.42.

Turning to A18U A47G C68A, the self-cleavage came to 0.34.

In the case of A18G A28U U72G, the self-cleavage is 0.49.

For A18G A35G A56U U67C C71U, the self-cleavage turned out to be 0.16.

Consider A18G A21G C29U, for which the self-cleavage was 0.12.

As for A18G U54A U72A, the self-cleavage came out at 0.39.

As to A18U U25A A45U U54C, the self-cleavage worked out at 0.05.

As to A18U A28G C44U, the self-cleavage amounted to 0.21.

A18G U48C A75G: the self-cleavage was determined as 0.17.

Turning to A18G U25C U69C, the self-cleavage amounted to 0.32.

Regarding A18G U51A U54C A64U, the self-cleavage was found to be 0.32.

A18G C23U U26C G53A U80G: the self-cleavage came to 0.06.

Consider A18U A35U A57G C59A, for which the self-cleavage was determined as 0.11.

For the variant A18U G36U U49A A56U U80C, the self-cleavage came out at 0.45.

Consider A18G U58A U67C, for which the self-cleavage was found to be 0.14.

As for A18G U26A A35U U43C, the self-cleavage was determined as 0.24.

In the case of A18G C40U U58C, the self-cleavage is 0.06.

Take A18G U26A U31C U41C U78C: the self-cleavage worked out at 0.03.

A18G U67C U69C U72C A75G: the self-cleavage is 0.1.

As to A18U A20C A45G A56G, the self-cleavage is 0.15.

As for A18U A21G C38G U69C C81U, the self-cleavage came to 0.04.

For A18U G24A U48C G63U A64G, the self-cleavage turned out to be 0.15.

Regarding A18G C44A G53A U60A A65G U72C, the self-cleavage stood at 0.07.

As to A18G U51A U60G U69A, the self-cleavage stood at 0.36.

For the variant A18U A20G A35U A56G U60C U80A, the self-cleavage is 0.07.

On to A18U A28U U58C A65U, for which the self-cleavage stood at 0.17.

In the case of A18U A35G C40U U41G A56U U66A U78C, the self-cleavage came to 0.05.

As for A18U C40U U67C U69A, the self-cleavage turned out to be 0.26.

Turning to A18U C23U A45G A47G A57U, the self-cleavage came to 0.04.

Regarding A18U A35U A45G U74G U80C, the self-cleavage worked out at 0.13.

Source of the values: the RNAGym collection of RNA variant scans (doi:10.1093/nar/gkz1192).
